Measured values published in the supplement of paper PMC12217912.
Some of the results follow. Sequences were assembled here from the parent chain. Values near 0.05 are background.

B1: TEV protease; numbered along this chain (parent)
chain: MGESLFKGPRDYNPISSSICHLTNESDGHTTSLYGIGFGPFIITNKHLFRRNNGTLVVQSLHGVFKVKDTTTLQQHLVDGRDMIIIRMPKDFPPFPQKLKFREPQREERICLVTTNFQTKSMSSMVSDTSCTFPSGDGIFWKHWIQTKDGQCGSPLVSTRDGFIVGIHSASNFTNTNNYFTSVPKNFMELLTNQEAQQWVSGWRLNADSVLWGGHKVFMVKPEEPFQPVKEATQL

Variants of: B1
Assay: raw area under fraction-flipped curve 0-4 h after induction (AUC4h, not background-subtracted), DNA-recorder readout of cleavage of the substrate (dimensionless); higher = more cleavage of the substrate by the protease variant
Settings: temperature: 34 °C; time window: 0-4 h after rhamnose induction
Procedure: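 In vivo DNA recorder in E. coli TOP10(DE3) ΔrhaA at 34 °C. Each TEVp single-site mutant (parent TEVp 0) is paired with a single-site variant of the 7-mer TEVs (canonical ENLYFQ|S). The substrate sits between flexible linkers in a Bxb1-sfGFP-TEVs-SsrA fusion, so cleavage stabilises Bxb1 and speeds flipping of a recombination array, read by NGS. The value is the raw area under the fraction-flipped curve over 0-4 h after rhamnose induction (AUC4h), with ≥20 reads per time point. It is not background-subtracted; inactive controls average about 0.047.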
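Also: Bxb1 expression induced with 0.2% (w/v) L-rhamnose at OD600 near 0.5, cultures sampled hourly, flipped fraction per protease–substrate barcode pair counted by paired-end Illumina sequencing.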

Variant | area with substrate ENAYFQS | area with substrate ENCYFQS | area with substrate ENDYFQS | area with substrate ENEYFQS | area with substrate ENFYFQS | area with substrate ENGYFQS | area with substrate ENHYFQS | area with substrate ENKYFQS | area with substrate ENMYFQS | area with substrate ENNYFQS | area with substrate ENPYFQS | area with substrate ENQYFQS | area with substrate ENSYFQS | area with substrate ENVYFQS | area with substrate ENWYFQS | area with substrate ENIYFQS | area with substrate ENYYFQS | area with substrate ENRYFQS | area with substrate ENTYFQS
R51C | 0.0502 | 0.059 | 0.0672 | 0.0462 | 0.0768 | 0.0678 | 0.0424 | 0.0458 | 0.0798 | 0.0684 | 0.0566 | 0.0359 | 0.0575 | 0.0905 | 0.0649 | – | – | – | –
H62N | 0.0682 | 0.0684 | – | 0.0567 | 0.0643 | – | – | 0.0436 | – | 0.0649 | – | 0.0635 | 0.0743 | 0.0877 | – | 0.0884 | 0.0507 | – | –
K46E | 0.0488 | 0.0616 | 0.059 | 0.0651 | 0.0594 | 0.0566 | 0.0791 | 0.0682 | 0.0597 | 0.0547 | 0.0796 | 0.0567 | 0.0579 | 0.0674 | – | 0.0619 | – | 0.0573 | 0.0657
K46R | 0.0353 | 0.0794 | 0.0725 | – | 0.0603 | 0.0667 | 0.0682 | 0.069 | 0.0554 | 0.0537 | 0.0701 | 0.0591 | 0.0688 | – | 0.0831 | 0.0871 | – | 0.0597 | –
K46F | 0.0391 | 0.0607 | 0.0593 | – | 0.066 | – | – | – | 0.0126 | – | 0.0564 | – | 0.0665 | – | – | 0.0801 | – | 0.0543 | 0.0579
S32N | 0.0642 | 0.0611 | 0.0674 | 0.0603 | 0.0512 | 0.0416 | – | 0.0906 | – | 0.07 | – | 0.0664 | 0.0583 | 0.0625 | 0.0588 | – | – | 0.0838 | 0.0576
T31C | 0.0526 | 0.0693 | 0.0571 | 0.0538 | – | 0.0694 | 0.0683 | 0.0691 | – | 0.0525 | 0.0595 | 0.0641 | 0.0916 | 0.0677 | – | – | 0.0608 | 0.0543 | 0.0738
T31G | 0.054 | 0.0597 | 0.064 | 0.0538 | 0.0626 | 0.0479 | 0.0619 | 0.045 | 0.0646 | 0.0739 | – | 0.0567 | – | 0.0711 | 0.0201 | – | – | 0.0492 | –
T31R | 0.0539 | 0.0622 | 0.0505 | – | 0.0623 | 0.0351 | 0.0589 | 0.0343 | – | 0.0404 | 0.0603 | 0.0555 | 0.055 | 0.0626 | – | – | – | 0.0615 | 0.0474
S60V | 0.0547 | 0.062 | 0.0509 | 0.0444 | 0.0549 | 0.0635 | 0.0515 | – | 0.0951 | 0.0526 | – | 0.0492 | 0.0597 | 0.0587 | 0.0441 | 0.105 | 0.0656 | 0.048 | 0.0646
S60F | 0.0636 | 0.0503 | 0.035 | 0.0537 | 0.0591 | 0.0584 | – | – | 0.0728 | – | – | 0 | 0.0613 | 0.0925 | – | – | 0.0597 | – | 0.0714
H29Y | 0.0553 | 0.051 | 0.0647 | – | 0.0548 | 0.0717 | 0.0586 | 0.0597 | – | – | 0.0453 | 0.0509 | 0.0546 | 0.0752 | 0.0691 | 0.104 | 0.05 | 0.0555 | 0.0602
N52T | 0.0313 | 0.058 | 0.0936 | 0.0345 | 0.067 | 0.0767 | – | 0.0611 | – | 0.0556 | 0.0652 | 0.0534 | 0.0605 | 0.0624 | – | 0.0954 | – | 0.0592 | 0.0572
N52Y | 0.0554 | – | 0.0692 | 0.0579 | 0.0665 | 0.0619 | – | 0.0624 | 0.0818 | 0.0613 | 0.0562 | 0.0622 | 0.0806 | 0.0629 | 0.0106 | 0.075 | – | 0.0577 | 0.0542
N52S | 0.0561 | 0.0482 | 0.0568 | 0.0587 | – | – | 0.0535 | – | 0.0649 | 0.0541 | 0.0553 | 0.0583 | 0.0612 | 0.0609 | – | 0.059 | 0.0483 | – | 0.0563
N52F | 0.0584 | 0.0948 | 0.0705 | 0.0565 | 0.0302 | – | 0.0774 | 0.0624 | 0.0586 | – | 0.0559 | 0.0694 | 0.0643 | 0.0588 | 0.0128 | 0.0436 | 0.0556 | – | 0.0586
I42W | 0.0512 | 0.0587 | 0.0536 | 0.0608 | 0.0535 | 0.0544 | 0.042 | 0.0466 | – | 0.054 | 0.0377 | 0.0414 | 0.0535 | 0.0685 | – | 0.0696 | 0.0477 | 0.0426 | 0.0431
I42G | 0.0497 | 0.0487 | 0.0514 | 0.0534 | 0.0346 | 0.105 | 0.0391 | – | 0.044 | 0.0493 | 0.0518 | – | 0.0438 | 0.0493 | – | 0.0327 | 0.0475 | – | 0.0826
G39D | 0.0441 | 0.0416 | 0.0345 | 0.0398 | 0.0325 | 0.0266 | 0.0354 | 0.0456 | – | 0.0359 | – | 0.0501 | 0.0482 | 0.0242 | – | – | 0.0192 | – | 0.0445
G39V | 0.0315 | 0.0361 | 0.0439 | 0.0434 | 0.0468 | 0.0423 | 0.0468 | 0.0403 | 0.0478 | 0.0461 | 0.0386 | 0.0364 | 0.0414 | 0.0365 | 0.0373 | – | 0.0487 | 0.0448 | 0.0411
G39K | 0.0357 | 0.0317 | 0.0265 | 0.0552 | 0.0465 | 0.014 | 0.0541 | 0.0582 | 0.0485 | – | – | 0.0535 | 0.0407 | – | – | 0.0447 | – | 0.0323 | 0.0425
G39S | 0.0501 | 0.0249 | 0.0421 | 0.0424 | 0.0535 | 0.0512 | 0.0425 | – | 0.0353 | 0.0526 | 0.0407 | 0.0417 | 0.0451 | 0.0436 | 0.014 | 0.0441 | – | 0.0462 | –
I43V | 0.0435 | – | 0.0554 | 0.0723 | 0.0645 | 0.0676 | – | – | 0.0917 | 0.0484 | – | 0.0801 | 0.0496 | – | 0 | 0.112 | – | 0.0646 | 0.0691
L48H | 0.0458 | 0.0592 | 0.057 | – | 0.051 | – | – | – | – | 0.0591 | 0.0557 | 0.0614 | 0.061 | 0.0631 | – | – | – | – | 0.0532
